Out of some 320,000 compounds screened, about 200 (0.062%) were called active. Inconclusive means that the source gave no clear call. Such entries were picked first, then a sample of the others. The call rests on the fitted dose curve; in most records, active means well fitted activation curve with a large enough effect; inconclusive means small, poorly fitted or top-dose-only effect; inactive means no such curve, though single readings can be large or run the other way. No potency is given beside an inconclusive call; the fits are too rough.
Experiment: qHTS assay for re-activators of p53 using a Luc reporter; further: nearly all actives have a fitted effect of over 45% in size
Conditions: H1299 p53-A138V BP100-luciferase reporter, luminescence, 24 h; series mostly up to 92.2 µM
Procedure, shortened: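 H1299 (p53-null), stable ts p53-A138V + BP100-Luc; 1000 cells/well, Opti-MEM/10% FBS; cpd 4 pt, 1:5; 24 h, 37 deg C, 5% CO2; detection reagent 10 min RT; luminescence.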
Potency means the concentration at half of the fitted maximal effect; tags describe the fitted curve by direction and shape.

Structure (SMILES) | Potency
Cc1ccc(C(NC(=O)C(C)C)c2cc([N+](=O)[O-])c3cccnc3c2O)cc1 (stereo not drawn) | inconclusive [activator, partial curve, poor fit]
O=C(CSc1ccc(-c2cccs2)nn1)N1CCCCC1 | inconclusive [activator, full curve, poor fit]
Cc1ccsc1/C=N/NC(=O)C(O)c1ccccc1 (stereo not drawn) | inactive
COc1ccc(NC(=O)c2ccc3nccnc3c2)cc1 | inconclusive [activator, full curve, poor fit]
CCN1CCN(S(=O)(=O)c2c(C)cc(C)cc2C)CC1 | inconclusive [activator, partial curve, poor fit]
O=C(CSc1nnc(NC(=O)C2CC2)s1)Nc1ccccc1 | inconclusive [activator, single point]
Cc1snc(SCC(=O)N/N=C(\N)COc2ccc(F)cc2)c1C#N | inactive
CCOC(=O)COn1c(-c2cccc(Cl)c2)nc2ccc([N+](=O)[O-])cc21 | inconclusive [activator, single point]
Cc1ccc(-c2n[nH]c(=O)c3ccccc23)cc1S(=O)(=O)NC(C)(C)C | inactive
O=C(Cc1ccccc1[N+](=O)[O-])NCc1ccc2c(c1)OCO2 | inconclusive [activator, partial curve, poor fit]
O=C(Nc1nc(-c2cccs2)cs1)C1=COCCO1 | inconclusive [activator, partial curve, poor fit]
Cc1c(C(=O)OCC(=O)c2ccc3c(c2)OCCO3)oc2ccccc12 | inconclusive [activator, partial curve, poor fit]
CCCCc1ccc(NC(=O)CC(C)(C)C)cc1 | inconclusive [activator, partial curve, poor fit]
CC(C)n1nc(C(=O)OCC(=O)N2CC(=O)Nc3ccccc32)c2ccccc2c1=O | inactive
CCCOc1ccc(/C=N/NC(=S)Nc2ccccc2[N+](=O)[O-])c(O)c1 | inconclusive [activator, partial curve, poor fit]
CC(=O)Nc1ccc(NC(=O)C(C)Sc2nnc(-c3ccc4c(c3)OCO4)o2)cc1 (stereo not drawn) | inconclusive [activator, partial curve, poor fit]
CN(C)S(=O)(=O)c1cccc(C(=O)Nc2ccc3c(c2)CCC3)c1 | inconclusive [activator, partial curve, poor fit]
OC(COc1ccc2ccccc2c1Cl)CN1CCOCC1 (stereo not drawn) | inconclusive [activator, partial curve, poor fit]
O=C(COC(=O)c1cc([N+](=O)[O-])ccc1NCc1ccccc1Cl)NCC(F)(F)F | inconclusive [activator, full curve, poor fit]
N#CC1(NC(=O)COc2cc(F)ccc2[N+](=O)[O-])CCCCC1 | inconclusive [activator, full curve]
Nc1nc2ncc(C(=O)c3cc(Cl)cc(Cl)c3O)cc2s1 | inactive
COc1cccc(NC(=O)CCc2c(C)nc3nc(CNC(=O)c4cccc(F)c4)nn3c2C)c1 | inactive

Structure (SMILES) | Potency
O=C(COc1ccccc1)N=C1SC2CS(=O)(=O)CC2N1c1ccc(F)cc1 (stereo not drawn) | inactive
Cc1cc(=O)n2cc(-c3ccccc3)nc2[nH]1 | inconclusive [activator, partial curve, poor fit]
COc1ccc([N+](=O)[O-])cc1/C=N/NC(=O)c1nonc1N | inactive
O=C(CCS(=O)(=O)c1ccc(Br)cc1)Nc1ccc2c(c1)OCO2 | inconclusive [activator, single point]
CCSC1=C(C#N)C2(CCCCC2)C(C#N)=C(N)N1 | inactive
O=c1c2ccccc2nc2n1CCN2 | inactive
CCC(=O)Nc1nnc(-c2ccncc2)s1 | inactive
O=C(Nc1ccccc1)c1ccc(OC(=O)c2cc3ccccc3o2)cc1 | inactive
C=CCOc1ccc2c(OC)c3ccoc3nc2c1OC | inconclusive [activator, partial curve, poor fit]
O=C(N/N=C/c1ccoc1)c1ccccc1F | inconclusive [activator, single point]
COc1cccc(OCc2nc3ccccc3[nH]2)c1 | inconclusive [activator, partial curve, poor fit]
CCOc1ccc(NS(=O)(=O)c2cc(NC(=O)c3cccc(C)c3)ccc2Cl)cc1 | inconclusive [activator, single point]
COc1ccccc1NC(=O)c1cccs1 | inconclusive [activator, single point]
Cc1ccc(C(=O)CCNc2ccc(Cl)cc2)o1 | inconclusive [activator, partial curve, poor fit]
COc1ccccc1NC(=O)c1ccc2snnc2c1 | inactive
C=C(C)C1CC=C(C)/C(=N/Nc2ccccc2[N+](=O)[O-])C1 (stereo not drawn) | inconclusive [activator, partial curve, poor fit]
CN(Cc1ccccc1)C(=O)CC(=O)N(C)Cc1ccccc1 | inconclusive [activator, partial curve, poor fit]
C/C(N)=C(/C#N)C(=O)CSc1nnc(NC(C)C)s1 | inconclusive [activator, partial curve, poor fit]
O=C(N/N=C/c1ccc(O)cc1)c1cc(-c2ccc3c(c2)OCO3)n[nH]1 | inconclusive [activator, partial curve, poor fit]
CCc1ccc(Nc2nnc(SCC(=O)Nc3cccc(S(=O)(=O)NC4=NCCCCC4)c3)s2)cc1 | inconclusive [activator, partial curve, poor fit]
c1ccc2c(CCNc3ncnc4nc[nH]c34)cccc2c1 | inconclusive [activator, partial curve, poor fit]
